Scores whose standard error is large were omitted. The source holds two more conditions with little spread; they are left out. In variant names, del marks residues removed and ins residues inserted between the two positions. For part of these data: The data file names ogerin without a concentration.

To fix the notation:
B1: GPR68, Q15743 (parent)
chain: MGNITADNSSMSCTIDHTIHQTLAPVVYVTVLVVGFPANCLSLYFGYLQIKARNELGVYLCNLTVADLFYICSLPFWLQYVLQHDNWSHGDLSCQVCGILLYENIYISVGFLCCISVDRYLAVAHPFRFHQFRTLKAAVGVSVVIWAKELLTSIYFLMHEEVIEDENQHRVCFEHYPIQAWQRAINYYRFLVGFLFPICLLLASYQGILRAVRRSHGTQKSRKDQIQRLVLSTVVIFLACFLPYHVLLLVRSVWEASCDFAKGVFNAYHFSLLLTSFNCVADPVLYCFVSETTHRDLARLRGACLAFLTCSRTGRAREAYPLGAPEASGKSGAQGEEPELLTKLHPAFQTPNSPGSGGFPTGRLA

The variants in series [1] derive from B1. In words: cAMP reporter score (Enrich2 score, wild type = 0); higher = more signal; HEK293T, FACS bins.
Variants of B1 are the subject of series [2]. In words: surface expression score (Enrich2 score, wild type = 0); higher = more signal; HEK293T, FACS bins.

With C13_T14del, the cAMP reporter score in series [1] (pH 5.5) was -0.961; in series [1] (pH 6), -0.5; in series [1] (pH 6, modulator: ogerin), -1.75; in series [1] (pH 6.5, modulator: ogerin), -0.691. The surface expression score in series [2] was -1.61.

Regarding T18_H20del, in series [1] (pH 5.5), the cAMP reporter score is -0.485.

As for D16del, the cAMP reporter score in series [1] (pH 5.5) is -1.21; in series [1] (pH 6), -0.441; in series [1] (pH 6, modulator: ogerin), -1.52; in series [1] (pH 6.5, modulator: ogerin), -1.04. Moreover, in series [2], the surface expression score is -0.388.

As to H17_T18del, the cAMP reporter score was -1.05 in series [1] (pH 5.5); -1.13 in series [1] (pH 6); -2.46 in series [1] (pH 6, modulator: ogerin); -1.26 in series [1] (pH 6.5, modulator: ogerin). Besides, the surface expression score in series [2] is -0.229.

With T14del, the cAMP reporter score in series [1] (pH 5.5) is -0.339; in series [1] (pH 6), -0.742; in series [1] (pH 6, modulator: ogerin) it was -0.692; in series [1] (pH 6.5, modulator: ogerin) it was -0.355. Besides, in series [2], the surface expression score was -0.471.

Regarding D16_H17insG, the cAMP reporter score came to 0.014 in series [1] (pH 5.5); 2.12 in series [1] (pH 6); 0.113 in series [1] (pH 6, modulator: ogerin); 1.17 in series [1] (pH 6.5, modulator: ogerin). Besides, the surface expression score in series [2] was -0.329.

Regarding A24_P25del, the cAMP reporter score in series [1] (pH 5.5) was -1.3; in series [1] (pH 6) it was -1.14; in series [1] (pH 6, modulator: ogerin), -1.72; in series [1] (pH 6.5, modulator: ogerin), -0.968. The surface expression score in series [2] was -1.9.

On to S10M, for which the cAMP reporter score in series [1] (pH 5.5) is -0.033; in series [1] (pH 6) it was -0.937; in series [1] (pH 6, modulator: ogerin) it was -0.104; in series [1] (pH 6.5, modulator: ogerin), -0.364. In addition, in series [2], the surface expression score is -1.11.

For S10Q, the cAMP reporter score was -0.969 in series [1] (pH 5.5); -0.34 in series [1] (pH 6); -0.735 in series [1] (pH 6, modulator: ogerin); -0.251 in series [1] (pH 6.5, modulator: ogerin). Moreover, in series [2], the surface expression score was -1.66.

In the case of S10P, the cAMP reporter score in series [1] (pH 5.5) was -0.331; in series [1] (pH 6), -0.678; in series [1] (pH 6, modulator: ogerin) it was -0.287; in series [1] (pH 6.5, modulator: ogerin), -0.422. Further, the surface expression score in series [2] was -0.684.

Consider S10T, for which the cAMP reporter score is 0.03 in series [1] (pH 5.5); 0.298 in series [1] (pH 6); 0.164 in series [1] (pH 6, modulator: ogerin); -0.269 in series [1] (pH 6.5, modulator: ogerin). Further, the surface expression score in series [2] was -0.011.

Turning to S10H, the cAMP reporter score in series [1] (pH 5.5) was 0.286; in series [1] (pH 6), 1.36; in series [1] (pH 6, modulator: ogerin), -0.132; in series [1] (pH 6.5, modulator: ogerin), 0.05. The surface expression score in series [2] was -0.184.

For S10I, the cAMP reporter score in series [1] (pH 5.5) was 0.478; in series [1] (pH 6), -0.44; in series [1] (pH 6, modulator: ogerin) it was 0.465; in series [1] (pH 6.5, modulator: ogerin) it was 0.638. In series [2], the surface expression score was -0.801.

Take S10V: the cAMP reporter score in series [1] (pH 5.5) is 0.555; in series [1] (pH 6), -0.302; in series [1] (pH 6, modulator: ogerin), 0.026; in series [1] (pH 6.5, modulator: ogerin), -1.29. Also, the surface expression score in series [2] was -0.671.

As for S10K, the cAMP reporter score was 1.08 in series [1] (pH 5.5); 0.903 in series [1] (pH 6, modulator: ogerin); -0.374 in series [1] (pH 6.5, modulator: ogerin). Further, the surface expression score in series [2] was 0.191.

For the variant S10N, the cAMP reporter score in series [1] (pH 5.5) is -0.782; in series [1] (pH 6), -0.533; in series [1] (pH 6, modulator: ogerin), -0.71; in series [1] (pH 6.5, modulator: ogerin), -0.957. For the same variant, the surface expression score in series [2] was 0.155.

Consider S10Y, for which the cAMP reporter score in series [1] (pH 5.5) worked out at 0.197; in series [1] (pH 6), 0.342; in series [1] (pH 6, modulator: ogerin), 0.233; in series [1] (pH 6.5, modulator: ogerin), 0.228. In series [2], the surface expression score was -0.734.

As for S10E, the cAMP reporter score is 0.126 in series [1] (pH 5.5); -1.05 in series [1] (pH 6); 0.221 in series [1] (pH 6, modulator: ogerin); -0.492 in series [1] (pH 6.5, modulator: ogerin). Moreover, the surface expression score in series [2] is -0.953.

S10W: the cAMP reporter score in series [1] (pH 5.5) turned out to be 1.23; in series [1] (pH 6, modulator: ogerin), 0.451; in series [1] (pH 6.5, modulator: ogerin) it was 0.559.

Take S10G: the cAMP reporter score in series [1] (pH 5.5) is -0.24; in series [1] (pH 6), -0.143; in series [1] (pH 6, modulator: ogerin), -0.422; in series [1] (pH 6.5, modulator: ogerin), -0.706. Also, in series [2], the surface expression score is -1.34.

Regarding S10R, the cAMP reporter score was 0.517 in series [1] (pH 5.5); -0.014 in series [1] (pH 6); 0.22 in series [1] (pH 6, modulator: ogerin); 0.252 in series [1] (pH 6.5, modulator: ogerin). For the same variant, the surface expression score in series [2] is -0.509.

Consider S10L, for which the cAMP reporter score in series [1] (pH 5.5) was -0.801; in series [1] (pH 6), -0.309; in series [1] (pH 6, modulator: ogerin) it was -0.407; in series [1] (pH 6.5, modulator: ogerin) it was -0.005. The surface expression score in series [2] was -0.807.

Regarding S10F, the cAMP reporter score in series [1] (pH 5.5) is -0.726; in series [1] (pH 6), -1.04; in series [1] (pH 6, modulator: ogerin), -0.702; in series [1] (pH 6.5, modulator: ogerin), -1.02. In series [2], the surface expression score is -0.676.

For the variant L23_A24insGSG, the cAMP reporter score in series [1] (pH 5.5) is -1.3; in series [1] (pH 6) it was 0.452; in series [1] (pH 6, modulator: ogerin), -1.02; in series [1] (pH 6.5, modulator: ogerin), -0.584. In addition, the surface expression score in series [2] was -1.86.

On to H20_T22del, for which the cAMP reporter score in series [1] (pH 5.5) was -1.34; in series [1] (pH 6), -0.453; in series [1] (pH 6, modulator: ogerin) it was -1.11; in series [1] (pH 6.5, modulator: ogerin), -0.7. Besides, the surface expression score in series [2] is -1.97.

In the case of I15_D16insGSG, the cAMP reporter score in series [1] (pH 5.5) amounted to 0.469; in series [1] (pH 6), 0.144; in series [1] (pH 6, modulator: ogerin), 0.627; in series [1] (pH 6.5, modulator: ogerin), 0.608. Also, in series [2], the surface expression score worked out at 0.354.

M11_S12insGS: the cAMP reporter score in series [1] (pH 5.5) was 0.354; in series [1] (pH 6) it was 0.401; in series [1] (pH 6, modulator: ogerin) it was 1.02; in series [1] (pH 6.5, modulator: ogerin), 0.49. In addition, the surface expression score in series [2] worked out at 0.685.

As for T14_I15insGS, the cAMP reporter score is 0.932 in series [1] (pH 5.5); -0.051 in series [1] (pH 6); 0.137 in series [1] (pH 6, modulator: ogerin); -0.034 in series [1] (pH 6.5, modulator: ogerin). Besides, the surface expression score in series [2] was -0.981.

Take I19_H20insG: the cAMP reporter score in series [1] (pH 5.5) was -0.89; in series [1] (pH 6) it was -0.912; in series [1] (pH 6, modulator: ogerin), -1.38; in series [1] (pH 6.5, modulator: ogerin) it was -0.487. The surface expression score in series [2] is -1.64.

Consider T22_L23insGS, for which the cAMP reporter score in series [1] (pH 5.5) was -0.656; in series [1] (pH 6), -0.756; in series [1] (pH 6.5, modulator: ogerin), -0.904. In addition, the surface expression score in series [2] was -2.44.

Regarding C13_I15del, the cAMP reporter score was -0.98 in series [1] (pH 5.5); -0.422 in series [1] (pH 6); -1.37 in series [1] (pH 6, modulator: ogerin); -0.718 in series [1] (pH 6.5, modulator: ogerin). For the same variant, the surface expression score in series [2] was -1.84.

The values are drawn from the GPR68 mutational scans of Howard et al. (2025).
